{
  "source": "PubChem BioAssay AID686979",
  "about": "(National Center for Advancing Translational Sciences (NCATS), 2013)",
  "note": "Values joined by “and” are separate entries in the source; they are usually repeats but may differ in a detail not shown here. Identical values can stand only once. In all, about 420,000 compounds went through this assay and about 50,000 (12%) were called active. Inconclusive means that the source gave no clear call. Such entries were picked first, then a sample of the others. Calls follow the shape of the dose curve; as a rule, active = well fitted inhibition curve with a large enough effect; inconclusive = small, poorly fitted or top-dose-only effect; inactive = flat fitted curve, though single readings scatter. Potencies of inconclusive entries are doubtful fits and often do not repeat. % is scaled to controls: 0 for no effect and ±100 for the full control effect; potency is read from the fitted curve at half-maximal effect; tags tell the direction and shape of the fitted curve.",
  "data": [
    {"experiment": "qHTS for Inhibitors of human tyrosyl-DNA phosphodiesterase 1 (TDP1): qHTS in cells in presence of CPT; also: nearly all actives have a fitted effect of over 55% in size", "details": "chicken DT40 Tdp1-/-;hTDP1 cells + 20 nM CPT, ATP luminescence, 48 h; activity change, negative = growth inhibition: at 46.2 µM (top of the series) unless noted", "summary_of_the_method": "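Chicken DT40 Tdp1-/- cells complemented with human TDP1, 400 cells/well, exposed to compounds plus 20 nM camptothecin for at least 48 h at 37 C; viability read as ATP content by CellTiter-Glo luminescence.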", "values": [
      {"smiles": "CCNC(=O)CCn1nc(-c2ccc(Cl)cc2)c2ccccc2c1=O", "Potency": "inconclusive: 9.2 µM [inhibitor, partial curve]"},
      {"smiles": "O=Cc1cn(-c2ccccc2)nc1-c1ccc2c(c1)OCCO2", "Potency": "inconclusive: 29.1 µM [inhibitor, single point]"},
      {"smiles": "CCC1CCCCN1C(=O)c1c[nH]c2ccc(S(=O)(=O)N(C)c3ccc(Cl)cc3)cc2c1=O", "note": "(stereo unspecified)", "Potency": "inconclusive: 23.1 µM [inhibitor, single point]"},
      {"smiles": "O=C(c1cc2cc(Br)ccc2[nH]1)N1CCc2ccccc21", "Potency": "inconclusive: 0.0146 µM [inhibitor, full curve, poor fit]"},
      {"smiles": "C=C(C)COc1ccc(-c2[nH]ncc2Oc2cccc(OC)c2)c(O)c1", "Potency": "inconclusive: 20.6 µM [inhibitor, single point]"},
      {"smiles": "COCOCCn1cc(CN2CCS(=O)(=O)N(Cc3ccc(-c4ccc(F)cc4)cc3)C(C(C)C)C2=O)nn1", "note": "(stereo unspecified)", "Potency": "inconclusive: 23.1 µM [inhibitor, single point]"},
      {"smiles": "Cc1c(C(C)C)c(=O)n(-c2ccc(S(=O)(=O)NCc3ccccc3)cc2)n1C", "Potency": "inconclusive: 7.31 µM [inhibitor, partial curve, poor fit]"},
      {"smiles": "Cc1ccc(-c2nc3c(C)cc(Br)cn3c2Cc2cccc(F)c2)cc1", "Potency": "inconclusive: 29.1 µM [inhibitor, single point]"},
      {"smiles": "O=C(NC(=S)Nc1cccc(NC(=S)NC(=O)c2ccccc2)c1)c1ccccc1", "Potency": "active: 9.2 µM"},
      {"smiles": "CCc1nn(CCCC(=O)NCc2ccc(OC(C)C)cc2)c(=O)c2cc3occc3n12", "Potency": "inconclusive: 29.1 µM [inhibitor, single point]"},
      {"smiles": "Cc1ccccc1C(=O)N1CCC(C(=O)Nc2ccc(S(=O)(=O)N3C(C)CCCC3C)cc2)CC1", "note": "(stereo unspecified)", "Potency": "active: 11.6 µM"},
      {"smiles": "O=C(CN1C(=O)NC2(CCCC2)C1=O)OCC(=O)c1cccc(Cl)c1", "activity change, negative = growth inhibition": "inactive: 6%"},
      {"smiles": "CNc1cncc(-c2ccc(OC)cc2OC)n1", "activity change, negative = growth inhibition": "inconclusive: -30.1% [inhibitor]"},
      {"smiles": "O=C(CSc1n[nH]c(-c2ccccc2Cl)n1)NCCc1ccccc1", "Potency": "active: 9.2 µM"},
      {"smiles": "COc1ccc(N2CCN(C(=O)c3cccn3-c3nnc(N4CCCC4)s3)CC2)cc1", "Potency": "inconclusive: 23.1 µM [inhibitor, single point]"},
      {"smiles": "O=S(=O)(c1ccc(F)cc1)c1nc(-c2ccco2)oc1Nc1ccc(F)cc1", "Potency": "inconclusive: 29.1 µM [inhibitor, single point]"},
      {"smiles": "CC1=CC2C(C(O)CC3(C)C2CC(C)C32OCOC23COCO3)C2(C)C/C(=C\\O)C(=O)C=C12", "note": "(stereo unspecified)", "Potency": "active: 1.64 µM"},
      {"smiles": "CCOC(=O)C1CCCN(c2nc3c(S(=O)(=O)c4ccc(CC)cc4)nnn3c3ccc(Cl)cc23)C1", "note": "(stereo unspecified)", "Potency": "inconclusive: 20.6 µM [inhibitor, single point]"},
      {"smiles": "COc1ccc(C)cc1NC(=O)Nc1nnc(N2CCCCC2)s1", "Potency": "inconclusive: 29.1 µM [inhibitor, single point]"},
      {"smiles": "CSc1ccccc1OCc1cc(C(=O)N2CCN(C)C(c3ccccc3)C2)no1", "note": "(stereo unspecified)", "Potency": "active: 20.6 µM"},
      {"smiles": "FC(F)C(F)(F)Oc1cccc(Nc2nccn3c(-c4cc(C(F)(F)F)cc(C(F)(F)F)c4)cnc23)c1", "Potency": "inconclusive: 29.1 µM [inhibitor, single point]"},
      {"smiles": "CCN(CC)C(=O)C1=C(C)N(CCCN2CCCC2=O)C(=O)C(CC(=O)NC(c2ccccc2)c2ccccc2)C1", "note": "(stereo unspecified)", "activity change, negative = growth inhibition": "inactive: -13.5%"},
      {"smiles": "CC(=O)Oc1ccc(Cn2c(C)c(C(=O)NCCC#N)sc2=O)cc1", "Potency": "inconclusive: 18.4 µM [inhibitor, single point]"},
      {"smiles": "CC(NC(=O)Cn1ccc2cc(S(=O)(=O)N3CCCCCC3)ccc21)c1ccccc1", "note": "(stereo unspecified)", "Potency": "inconclusive: 20.6 µM [inhibitor, single point]"},
      {"smiles": "C=C(C)COc1ccc(-c2[nH]ncc2-c2ccccc2)c(O)c1", "Potency": "active: 16.4 µM"},
      {"smiles": "CN(C)c1ccc(/C=N/NC(N)=S)cc1[N+](=O)[O-]", "activity change, negative = growth inhibition": "inactive: -29.1%"},
      {"smiles": "Cc1ccc(CN2CCSc3ccc(C(=O)NC4CCN(Cc5ccccc5)CC4)cc32)cc1", "Potency": "active: 7.31 µM"},
      {"smiles": "COc1ccccc1N1CCN(CCCCOc2ccc(C)cc2C)CC1", "Potency": "inconclusive: 16.4 µM [inhibitor, single point]"},
      {"smiles": "CS(=O)(=O)NCCCNc1c(Cl)cccc1[N+](=O)[O-]", "activity change, negative = growth inhibition": "inactive: 4.73%"},
      {"smiles": "Cc1ccc([C@H]2N[C@]3(CCCN(Cc4cccn4C)C3=O)[C@H]3C(=O)N(C)C(=O)[C@@H]23)cc1", "Potency": "inconclusive: 11.6 µM [inhibitor, partial curve]"},
      {"smiles": "Fc1ccc(Cn2nnc(-c3ccc(CN4CCOCC4)cc3)n2)cc1", "Potency": "inconclusive: 23.1 µM [inhibitor, single point]"},
      {"smiles": "c1coc(-c2nc(-c3ccco3)c(-c3ccco3)nc2-c2ccco2)c1", "Potency": "inconclusive: 14.1 µM [inhibitor, single point] and inconclusive: 29.1 µM [inhibitor, single point]"},
      {"smiles": "CCN(C(=O)CCc1nc(-c2ccc(C)cc2)no1)c1cccc(C(F)(F)F)c1", "Potency": "inconclusive: 29.1 µM [inhibitor, single point]"},
      {"smiles": "O=C(O)COc1ccc(/C=N/Nc2nc(Nc3ccccc3)nc(N3CCCCC3)n2)cc1", "Potency": "inconclusive: 29.1 µM [inhibitor, single point]"},
      {"smiles": "CN(C)[C@H]1CCN([C@@H]2CS(=O)(=O)N[C@H]2COCc2ccccc2)C1", "activity change, negative = growth inhibition": "inactive: -10.7%"},
      {"smiles": "COc1ccccc1S(=O)(=O)Cc1ccc(C(=O)NC2CCCCC2)o1", "activity change, negative = growth inhibition": "inactive: -17.3%"},
      {"smiles": "CCCS(=O)(=O)N1CC(=O)N(c2cccc(F)c2)C(C)(C(=O)NC2CCCCCC2)C1", "note": "(stereo unspecified)", "activity change, negative = growth inhibition": "inactive: -27.3%"},
      {"smiles": "COc1ccc2c(c1)Cc1sc(NC(=O)c3cccnc3)nc1-2", "Potency": "inconclusive: 29.1 µM [inhibitor, single point]"},
      {"smiles": "Cc1ccc(NC(=O)CN(C)S(=O)(=O)c2ccc(Cl)s2)c(O)c1", "activity change, negative = growth inhibition": "inconclusive: -30.2% [inhibitor]"},
      {"smiles": "NC(=O)C(NN=C(c1ccccc1)c1ccccc1)c1ccccc1", "note": "(stereo unspecified)", "activity change, negative = growth inhibition": "inactive: -29.4%"},
      {"smiles": "CCOC(=O)/C=C/C(=O)OCC(=O)Nc1cccc(Br)c1", "activity change, negative = growth inhibition": "inactive: -19.2%"},
      {"smiles": "Cc1cccc(CN2CCN(C3CN(Cc4ccc(F)cc4)S(=O)(=O)C3)CC2)c1", "note": "(stereo unspecified)", "Potency": "inconclusive: 29.1 µM [inhibitor, single point]"},
      {"smiles": "CCOC(=O)c1c(C)[nH]c(CCC(=O)Nc2ccccc2C(F)(F)F)c1C", "Potency": "inconclusive: 20.6 µM [inhibitor, single point]"},
      {"smiles": "N=c1c(C(=O)NC2CCCCC2)cc2c(=O)n3ccccc3nc2n1Cc1ccco1", "Potency": "inconclusive: 20.6 µM [inhibitor, partial curve]"},
      {"smiles": "CC(=O)c1cccc(NC(=S)NCCCCc2ccccc2)c1", "Potency": "inconclusive: 25.9 µM [inhibitor, single point]"},
      {"smiles": "CCc1ccc(NC(=O)CSc2nnc3[nH]c(=O)cc(-c4ccccc4)n23)cc1", "activity change, negative = growth inhibition": "inconclusive: -35.1% [inhibitor]"},
      {"smiles": "CCn1nnnc1SCC(=O)N(C)C1CCS(=O)(=O)C1", "note": "(stereo unspecified)", "activity change, negative = growth inhibition": "inactive: -6.9%"},
      {"smiles": "Cc1cccc(C)c1OCC(=O)Nc1ccccc1N1CCCCC1", "Potency": "inconclusive: 23.1 µM [inhibitor, single point]"},
      {"smiles": "N#Cc1c(NC(=O)c2cc(-n3cnnc3)ccc2Cl)sc2c1CCCC2", "Potency": "active: 20.6 µM"},
      {"smiles": "COC(=O)c1ccc2c(=O)n3nc(Nc4ccc(F)cc4F)sc3nc2c1", "activity change, negative = growth inhibition": "inactive: 12.2%"},
      {"smiles": "COc1ccc(CN2CCc3c(c(=O)n4ncc(C(=O)N5CCN(c6ccccc6F)CC5)c4n3C)C2)cc1", "Potency": "active: 18.4 µM"},
      {"smiles": "O=C(c1ccc2c(c1)OCCO2)C1CCN(C(=O)Nc2ccc(F)cc2)CC1", "Potency": "inconclusive: 29.1 µM [inhibitor, single point]"},
      {"smiles": "COc1ccc(OC)c(S(=O)(=O)N2CCCCC2C(=O)N2CCN(c3ccccn3)CC2)c1", "note": "(stereo unspecified)", "Potency": "inconclusive: 20.6 µM [inhibitor, single point]"},
      {"smiles": "COC(=O)C[C@H]1c2cc(C(F)(F)F)ccc2S(=O)(=O)N1Cc1ccccc1", "Potency": "inconclusive: 35.5 µM [inhibitor, single point]"},
      {"smiles": "CC/C(O)=C1\\C(=O)CCCC1=NCc1nc2ccccc2[nH]1", "activity change, negative = growth inhibition": "inconclusive: -8.1% [inhibitor]"},
      {"smiles": "CCOC(=O)C1C(=O)C=C(c2ccccc2)CC1c1ccccc1", "note": "(stereo unspecified)", "Potency": "inconclusive: 25.9 µM [inhibitor, single point]"},
      {"smiles": "O=C(OCCCc1cc2ccccc2c(=O)o1)N1CCOCC1", "Potency": "inconclusive: 29.1 µM [inhibitor, single point]"},
      {"smiles": "COc1cc(CNc2ccc3[nH]c(=O)[nH]c3c2)ccc1OCc1ccc(F)cc1Cl", "Potency": "inconclusive: 14.6 µM [inhibitor, partial curve] and inconclusive: 23.1 µM [inhibitor, single point]"},
      {"smiles": "COc1cc(CNc2ncc(-c3ccc(Cl)cc3)n2C)cc(OC)c1OC", "Potency": "active: 13 µM"},
      {"smiles": "CC1CC(C)CN(C(C(=O)NC2CCCCC2)c2ccnc3ccccc23)C1", "note": "(stereo unspecified)", "Potency": "inconclusive: 29.1 µM [inhibitor, single point]"},
      {"smiles": "O=C(COC(=O)c1ccc(Br)cc1)Nc1cccnc1Cl", "activity change, negative = growth inhibition": "inactive: -2.33%"},
      {"smiles": "COc1ccc(NC(=O)c2c(NC(=O)C(F)(F)F)sc3c2CCCCC3)cc1", "Potency": "inconclusive: 5.17 µM [inhibitor, single point]"},
      {"smiles": "O=C(O)COCC(=O)N1CCc2c([nH]c3ccccc23)C1C(F)(F)F", "note": "(stereo unspecified)", "activity change, negative = growth inhibition": "inactive: -4.58%"},
      {"smiles": "COc1ccccc1CNC(=O)CCc1cn(C)c2ccccc12", "Potency": "inconclusive: 29.1 µM [inhibitor, single point]"},
      {"smiles": "Cc1cccc(N2CCN(C(=O)c3nn(C)c4c3CS(=O)(=O)c3ccccc3-4)CC2)c1C", "Potency": "active: 20.6 µM and active: 13 µM"},
      {"smiles": "COc1ccc(OC2CCN(S(=O)(=O)c3ccc(C(C)=O)cc3)CC2)cc1", "Potency": "inconclusive: 16.4 µM [inhibitor, single point]"}
    ]}
  ]
}
